This is one part of the list. The data describe in vitro nicking of single-stranded DNA by Rep domains for 1 h at 37 °C with 3 µM enzyme; only the middle of the 90-letter strands is printed. The score is log2 (uncut reads / reads without enzyme); the lower, the more was cut; hits are not called. The scaling is to total reads; where an enzyme cuts many sequences, the uncut ones exceed 0.
test system: T1, Rep nickase domain of tomato golden mosaic virus; assay: uncleaved DNA left, log2 of reads against the no-enzyme library (log2 ratio); higher = less cleavage (more negative = more Rep cleavage of the k-mer); sequences stand for … in CTCGTCCG…ACCGGAGA
T1 sequence (Rep 1-124, printed without the tag): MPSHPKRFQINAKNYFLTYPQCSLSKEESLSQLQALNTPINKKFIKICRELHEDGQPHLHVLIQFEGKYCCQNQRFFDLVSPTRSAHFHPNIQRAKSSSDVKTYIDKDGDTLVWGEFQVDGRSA
Description: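 A pool of 90-nt single-stranded DNAs with seven random bases just before the constant AC of the nick site (name = the seven bases) was cut by 3 µM recombinant His6-SUMO-tagged Rep nickase domain (300 nM DNA, 50 mM HEPES pH 8.0, 50 mM NaCl, 1 mM MnCl2, 1 h, 37 °C, three replicates). Uncut DNA was amplified and sequenced.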

Sequence	uncleaved DNA left (log2)
ATTAGCA	0.0235
CAGGTTG	0.0305
TGTAACG	-0.0416
CCGCGCT	-0.11
AAGTTTT	-0.0592
TTGTTCG	-0.163
GATAAGA	0.0285
TGCGCGG	0.157
TCACTCA	-0.0733
TTTTTGA	-0.0208
GTCTGGC	0.106
CCCAGGG	0.129
TCAGGCC	0.0286
TTTCGGG	0.178
CTGAACC	-0.0408
AGCTGTA	-0.14
CCCATTG	-0.121
AAACGTC	0.0118
TACTCGC	-0.166
ATTTTGA	-0.098

Sequence	uncleaved DNA left (log2)
GGTATAG	-0.0377
AGACGTC	-0.0861
AAGTAAG	0.0794
TCTCGTT	0.0705
AACTATT	-2.4
GTCGCCG	0.0599
GGCTGTC	0.0138
CATCGCA	0.0148
GTTGAAT	0.0585
TGTCTCG	-0.0502
GAAGGAA	-0.00559
AGGCTGA	0.0188
GACAGCA	0.0955
ATTGGCA	-0.0549
TGACTGG	-0.106
CCAGGGT	0.0602
TTCCACG	-0.148
TGACCAG	0.00156
TGGACCC	0.0362
CGTAAAC	0.068

From the supplement of paper PMC7826260
